Data: PubChem BioAssay AID1745853 (National Center for Advancing Translational Sciences (NCATS), 2022)
Several values for one entry are separate records, joined by “and”; a condition that tells them apart may be missing. Equal entries are not always repeated. The list shows a part of the results. These are further read-outs of the screen, such as a control signal, another cell line or another target. No call is given for them. Square brackets hold non-standard residues; d marks the D form. Peptide text beside a SMILES is read from it. * marks the point of attachment. Dolaproine = CO[C@@H]([C@@H]1CCCN1)[C@@H](C)C(=O)O; Dil = CC[C@H](C)[C@H](NC)[C@@H](CC(=O)O)OC; Doe = c1ccc(C[C@H](N*)c2nccs2)cc1; Aib = CC(C)(N)C(=O)O

Key:
Experiment in all cases: Primary Screen for Target Class Profiling of Small Molecule Inhibitors of Methyltransferases
[1] = biological target: Glycine N-methyltransferase (Homo sapiens) (UniProt Q14749); conditions: purified enzyme, MTase-Glo SAH luminescence; measured here: GNMT inhibition; at 40 µM; stronger effect = lower value
Procedure, shortened: (§1)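 Each enzyme was reacted with SAM and its substrate, with compounds tested once at 40 uM; SAH formed was read by MTase-Glo luminescence.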

[2] = biological target: Guanidinoacetate N-methyltransferase (Homo sapiens) (UniProt Q14353); conditions: purified enzyme, MTase-Glo SAH luminescence; measured here: GAMT inhibition; at 40 µM; stronger effect = lower value
Procedure, shortened: as §1

[3] = biological target: Histamine N-methyltransferase (Homo sapiens) (UniProt P50135); conditions: purified enzyme, MTase-Glo SAH luminescence; measured here: HNMT inhibition; at 40 µM; stronger effect = lower value
Procedure, shortened: as §1

[4] = biological target: Nicotinamide N-methyltransferase (Homo sapiens) (UniProt P40261); conditions: purified enzyme, MTase-Glo SAH luminescence; measured here: NNMT inhibition; at 40 µM; stronger effect = lower value
Procedure, shortened: as §1

[5] = biological target: Phenylethanolamine N-methyltransferase (Homo sapiens) (UniProt P11086); conditions: purified enzyme, MTase-Glo SAH luminescence; measured here: PNMT inhibition; at 40 µM; stronger effect = lower value
Procedure, shortened: as §1
% is scaled to controls: 0 for no effect and ±100 for the full control effect.

| SMILES | activity change, negative = inhibition [1] | activity change, negative = inhibition [2] [%] | activity change, negative = inhibition [3] | activity change, negative = inhibition [4] [%] | activity change, negative = inhibition [5] [%] |
| --- | --- | --- | --- | --- | --- |
| Oc1ccc2c3c1O[C@H]1[C@H](N(CCCl)CCCl)CC[C@@]4(O)[C@@H](C2)N(CC2CC2)CC[C@]314 | 2.8% | -1.26 | 12% | -7.84 | 6.11 |
| COc1ccc(NC(=O)N2Cc3ccccc3-n3cccc3C2c2cccs2)c(OC)c1 (centres undefined) | 3.16% | 4.65 | -4.17% | -2.85 | 3.95 |
| CC(C)N(CCNC(=O)CN1CCCC1=O)C(C)C | 5.73% | 9.55 | 11.2% | -6.96 | 6.74 |
| CCC1c2cccn2-c2ccccc2CN1C(=O)Nc1cc(C(=O)OC)ccc1C(=O)OC (centres undefined) | 1.63% | 0.988 | -0.349% | 0.906 | 4.13 |
| CCOC(=O)c1ccc(NC(=O)N2Cc3ccccc3-n3cccc3C2c2cc(F)cc(F)c2)cc1 (centres undefined) | -0.711% | 3.89 | 0.283% | -5.22 | -0.319 |
| Cc1ccc(NC(=O)N2Cc3ccccc3-n3cccc3C2c2cccc(Cl)c2)c(Cl)c1 (centres undefined) | 14.7% | 7.08 | 11.5% | 8.87 | 10.4 |
| CC(=O)N1CCCC2(CC(c3cccnc3)=NO2)C1 (centres undefined) | -1.38% | -2.07 | 1.33% | -4.33 | -2.5 |
| C[C@@H]1O[C@@H](O[C@H]2CC[C@@]3(C)C(CC[C@@H]4C3CC[C@]3(C)[C@@H](C5=CC(=O)OC5)CC[C@]43O)C2)[C@H](O[C@@H]2O[C@H](CO)[C@@H](O)[C@H](O)[C@H]2O)[C@H](O)[C@H]1O (some centres undefined) | 4.49% | 6.39 | 11.9% | -5.73 | 4.78 |
| COC(=O)c1cccc(NC(=O)N2Cc3ccccc3-n3cccc3C2c2cccc(Cl)c2)c1 (centres undefined) | 13.7% | 0.397 | 5.6% | 0.23 | -5.28 |
| CCN1C[C@]2(COC)[C@H](O)C[C@H](OC)[C@]34[C@@H]5C[C@]6(O)[C@H](OC(=O)c7ccccc7)[C@@H]5[C@@](O)([C@H]([C@H](OC)[C@H]23)[C@@H]14)[C@@H](O)[C@@H]6OC | 7.18% | 10.4 | 5.95% | -3.68 | 6.23 |
| COC1CC(O[C@H]2CC[C@@]3(C)C(CCC4C3CC[C@]3(C)C(C5=CC(=O)OC5)CCC43O)C2)OC(C)C1OC1OC(COC2OC(CO)C(O)C(O)C2O)C(O)C(O)C1O (some centres undefined) | -4.95% | -11.4 | 2.04% | -19 | -5.26 |
| CC(N[C@H]1C[C@H]1c1ccccc1)c1ccc2c(c1)OCCO2 (some centres undefined) | -5% and -4.15% | – | 4.47% and -3.22% | -42 | -32.7 |
| CCC1NC(=O)C2C(Cl)C(Cl)CN2C(=O)C(CC)NC(=O)CC(c2ccccc2)NC(=O)C(CO)NC1=O (centres undefined) | -3.44% | 4.79 | 8.77% | -8.16 | 1.64 |
| COc1cc(NC(=O)N2Cc3ccccc3-n3cccc3C2c2ccc(C)cc2)cc(OC)c1 (centres undefined) | 12.5% | 0 | 9.8% | 9.75 | 6.41 |
| C=C(C)[C@H]1Cc2c(ccc3c2O[C@@H]2COc4cc(OC)c(OC)cc4[C@@H]2C3=O)O1 | -19.8% | -3.47 | -6.95% | -15.9 | -4.57 |
| COC(=O)C1=CCCN(C)C1 | 4.83% | 13.1 | 4.54% | 1.71 | 11.6 |
| Fc1ccc(C(OCCN2CCN(CCCc3ccccc3)CC2)c2ccc(F)cc2)cc1 | 2.69% | 11.1 | -10.2% | -8.44 | -0.916 |
| CC[C@H](C)[C@@H]([C@@H](CC(=O)N1CCC[C@H]1[C@H](OC)[C@@H](C)C(=O)N[C@@H](Cc1ccccc1)c1nccs1)OC)N(C)C(=O)[C@@H](NC(=O)C(C)(C)N)C(C)C (H-[Aib]V[Dil][Dolaproine]-Doe) | 1.72% | 3.79 | 6.04% | -8.84 | 4.68 |

| SMILES | activity change, negative = inhibition [1] | activity change, negative = inhibition [2] [%] | activity change, negative = inhibition [3] | activity change, negative = inhibition [4] [%] | activity change, negative = inhibition [5] [%] |
| --- | --- | --- | --- | --- | --- |
| C=C1[C@@H](C)[C@H]2[C@H](Cc3ccccc3)NC(=O)[C@]23[C@H](OC(C)=O)/C=C/[C@](C)(O)C(=O)[C@@H](C)C/C=C/[C@H]3[C@@H]1O | 0.976% | 3.5 | 10.2% | -12.6 | 6.36 |
| COc1cc2c(cc1OC)[C@@]13CCN4CC5=CCO[C@H]6CC(=O)N2[C@H]1[C@H]6[C@H]5C[C@H]43 | 0% | 4.26 | 6.3% | -8.65 | -2.5 |
| COC(=O)c1ccc(Cl)cc1NC(=O)N1Cc2ccccc2-n2cccc2C1C (centres undefined) | 2.79% | 4.9 | -1.31% | -0.37 | 3.85 |
| CC(=O)OC[C@]12C[C@H](O)C(C)=C[C@H]1O[C@@H]1[C@H](O)[C@@H](OC(C)=O)[C@@]2(C)[C@]12CO2 | 0% | -11.3 | -1.36% | -23.1 | -1.5 |
| C=C(CO)C(=O)O[C@H]1C/C(C)=C/CC/C(CO)=C/[C@H]2OC(=O)C(=C)[C@H]12 | 0% | 3.92 | 9.46% | -4.49 | 6.2 |
| COc1cccc([C@@H]2CCN(Cc3[nH]c4ccccc4c3C)C[C@H]2O)c1 | -2.48% | 1.2 | -0.722% | 3.63 | -0.809 |
| NNC(=O)c1ccc(O)cc1 | 5.74% | 14.2 | 8.32% | -2.53 | 2.43 |
| COC(=O)[C@@H](N)CCCN=C(N)N[N+](=O)[O-] | 2.42% | 8.93 | 3.95% | -0.323 | 10.5 |
| COc1ccc(C2c3cccn3-c3ccccc3CN2C(=O)Nc2ccc(F)cc2F)cc1 (centres undefined) | 12.6% | 0 | 8.9% | 6.18 | 4.67 |
| COc1ccccc1NC(=O)N1Cc2ccccc2-n2cccc2C1C(C)C (centres undefined) | -7.12% | 4.73 | 7.29% | 1.38 | 4.94 |
| O=C1N(Cc2ccccn2)C[C@H]2CN(Cc3nccs3)CCN12 | -4.11% | -7.59 | -1.27% | -7.14 | -4.8 |
| COCC(=O)NC[C@H]1C[C@@H]2CCN1C[C@@H]2CN1CCCCC1 | 0.132% | 0.19 | 2.15% | -0.432 | 13.1 |
| CCOCCCNC(=O)N1Cc2ccccc2-n2cccc2C1c1ccccc1 (centres undefined) | 4.56% | 0.653 | -5.42% | 2.63 | 5.89 |
| COC1CC(OC2CCC3(C=O)C(CCC4C3CCC3(C)C(C5=CC(=O)OC5)CCC43O)C2)OC(C)C1OC1OC(CO)C(O)C(O)C1O (centres undefined) | 4.69% | 5.71 | 11.8% | -6.56 | 5.47 |
| NCCCP(=O)(O)O | -9.3% | 2.1 | -1.64% | -8.43 | 5.39 |
| CNCCc1c[nH]c2ccc(O)cc12 | -13.5% | 8.46 | -20.5% | -5.32 | -1.35 |
| Cc1ccc(C)c(CC(=O)N2CCN(CCO)CC(O)C2)c1 (centres undefined) | -2.7% | -4.21 | -1.68% | -6.3 | -6.26 |
